Experimental data from PMC12136788.
The other results are listed elsewhere or left out.

B1: chr2:42509997:42509998:+_ENSG00000143924_ENST00000318522|hu_mus|hu_hu_hu_mus_True|1_58 (ssRNA)
RNA: GGGAGUUCUACAGUCCGACGAUCUCGCUGAGUCCUCUCCUCAUAAUUAAACAGGACUACCACUGAGGCGAUAAAAUAAACUAUUUUCCCUGUGGGAAGCAGGUAUACAUUCGCUCUACAGUCCUUUCCUCGAUAACCAUAUGCCAACAGAGGAUUGAGCAUCA
B2: chr7:86439405:86439406:+_ENSMUSG00000039202_ENSMUST00000037315|mus_hu|motif|central (ssRNA)
RNA: GGGAGUUCUACAGUCCGACGAUCUUCCUUGAAGAGUUGUACAGUUGGGCCGGUCAGGUCAGAUCUCUUAUUCAAACAAACCGGAAAGCUGCGUGUGAUUGACUACAGGUGCUCAGCUCGCCCCCAGUCUGGUUCCUGCAGCUCCAACAGAGGAUUGAGCAUCA
B3: chr17:13112271:13112272:+_ENSMUSG00000068039_ENSMUST00000151287|mus_hu|motif|central (ssRNA)
RNA: GGGAGUUCUACAGUCCGACGAUCAAUUAGGUUUUCAUUGAUAUAACGCACUGCUUCCUUGCAAGCAAGUCGAUAGCCACGGAUAACUGAUGUGGGAUGAAUUUUCUGUUUGACUAAUUCAUCUGCAUUUUUUAGGAGUUCUGCCAACAGAGGAUUGAGCAUCA
B4: chr1:39494564:39494565:+_ENSG00000168653_ENST00000372967|hu_mus|motif|central (ssRNA)
RNA: GGGAGUUCUACAGUCCGACGAUCAUGCAUUCGCCUCAUCGUUUUGUACCGAAGCAAGCACUCUUCGAAGUCAUCGAACUCGGUCUUGCACUCCUUUUUCGCCCGGGUCCCACCGAUCCCGUGUGCACACUCUAUCCACUCUUUCAACAGAGGAUUGAGCAUCA
B5: chr3:88342849:88342850:+_ENSMUSG00000074480_ENSMUST00000172699|mus_mus|FALSE|FALSE (ssRNA)
RNA: GGGAGUUCUACAGUCCGACGAUCCUUUGUGGGUAAGGAGUGGAGAGGGGGAGGGGACUGACAGACAGACAUCCCUUCUUCCCACCCCCCUCCCAUCCCCUGCCCCUGGGCAACCCAGGGUGCCCAUUUGGUUUGGUUUCUAUUCAACAGAGGAUUGAGCAUCA
B6: 142037738_142048388_4466_3pUTR_ENSG00000114127_ENST00000264951|human|control|control (ssRNA)
RNA: GGGAGUUCUACAGUCCGACGAUCUCAUUGUCUGUGGCAUCCUAAGAAAGGAGAAAUCAGGUUGUGGCAUUCCAACAAGGGAACAAAUUCGAGAAAGUUCAGUUACUGGUGUGGAUACAGGAGGGAUCUGGCUGGGGGCAGGCCCAACAGAGGAUUGAGCAUCA
B7: chr5:60455605:60455606:-_ENSG00000188725_ENST00000339020|hu_mus|FALSE|FALSE (ssRNA)
RNA: GGGAGUUCUACAGUCCGACGAUCAACUUAAAUACUUGCCAGUAGAUACCAACAAACUUUUAUUUCCAAGCCUAAAAGUUACUAUAGUAUUGAGGUCAGAACAUGACUCUUCUGUACGGUCAGAUUAAUUCACUAAAUAAUACUCAACAGAGGAUUGAGCAUCA
B8: 33710973_33711093_6789_3pUTR_ENSMUSG00000027677_ENSMUST00000099153|mouse|control|control (ssRNA)
RNA: GGGAGUUCUACAGUCCGACGAUCAAAUCAGCAUCUCCUUUAAACCUUUGGGAAAAUCGUCAUUACAGCAGUGAUUGUCUUAGAACUCAGUUACUUCUGGAAACGCAGCACUGGUAGGAAAUCUGUUUCUACUAAUGAUCAUUUCAACAGAGGAUUGAGCAUCA
B9: chr2:179515052:179515053:+_ENSMUSG00000000305_ENSMUST00000000314|mus_hu|mus_mus_mus_hu_False|38_78 (ssRNA)
RNA: GGGAGUUCUACAGUCCGACGAUCGCUGUCCCAUGCAGUCACCGUGAACGCCACCUGCUCUGAGGGGACCUGCAGCUCCCGGGUGGCGAAGACUGUCCCAUCCGCCCCAACUUUGAAGUCCAUGCUGUUGGUCUCAUAUUGUGUCAACAGAGGAUUGAGCAUCA
B10: chr14:103931940:103931941:+_ENSG00000075413_ENST00000216288|hu_mus|FALSE|FALSE (ssRNA)
RNA: GGGAGUUCUACAGUCCGACGAUCACAAAACGUGUCUAGUUUACUGCCAACAGUAAAUUCAUUGCUAAAACCAAAAUCUGCUAUUUUAAUGUUCAUAUCCGCAUCUAAUAACAGAUUUUCAGCCUUGAGGUCUCUGUGAACAAUCAACAGAGGAUUGAGCAUCA
B11: chr1:180459674:180459675:+_ENSMUSG00000026494_ENSMUST00000161017|mus_mus|motif|central (ssRNA)
RNA: GGGAGUUCUACAGUCCGACGAUCGCCUCUCUUUAUUUCCGGCUACCGAAUUCAUGGUGGCUCUUCCAGAGGAAAGGGUCGGAAUGUUCCCACAAGGCUACAUCCAAAAGGUCUGCCAACCCAGACGCGUCCCCCCUCGUGGUACAACAGAGGAUUGAGCAUCA
B12: chr1:60041781:60041782:+_ENSMUSG00000041040_ENSMUST00000036540|mus_hu|mus_mus_mus_hu_False|8_98 (ssRNA)
RNA: GGGAGUUCUACAGUCCGACGAUCAAGUUUACAAUAGCUCAACUUUAGCAGUAGUGGCAAAUUUUCUUUUAUUUUCCUUCACAAAAGAAAAUCUUUAUAACCCAGUCCUAGUCUUGGACAUAGUGAAUCUCCAUGGGUCUGACUCAACAGAGGAUUGAGCAUCA
B13: chr1:163112212:163112213:-_ENSG00000143248_ENST00000313961|hu_hu|hu_hu_hu_mus_False|18_38 (ssRNA)
RNA: GGGAGUUCUACAGUCCGACGAUCUUUUAUUAUCAGUAAGAGUGAGUUACAUACUAGGCAAAGUAUUGGAUACAAUAAUCAGGAAACAAACACUAUUUUUCUUGAAUUUAAAACUUUUGGGAUAAAUUGCUGGCACAGGACUUACAACAGAGGAUUGAGCAUCA
B14: chr2:166767530:166767531:+_ENSMUSG00000002718_ENSMUST00000002790|mus_hu|motif|central (ssRNA)
RNA: GGGAGUUCUACAGUCCGACGAUCAAAUAUUUCUUGUAGUGCUAGUGCCCCAUAUUUUAUGCAAUACAAAUUAAUAAAGACGGAAAAACUCUUGAUAAACUUGGUUGUUUUGGAAUUCUGAAGUCUCUGGAAUAGCAGAAUGAACAACAGAGGAUUGAGCAUCA

Each binder was assayed against T1, UNK ZnF1-3 (human, UniProt Q9C0B0 31-174) (assay: nsRBNS (natural sequence RNA bind-n-seq); RBNS binding buffer (assumed for nsRBNS): 25 mM Tris pH 7.5, 150 mM KCl, 3 mM MgCl2, 0.01% Triton X-100, 500 ug/ml BSA, 20 U/ml SUPERase-In, 4 C; UNK is unkempt and MSI1 is Musashi-1; names of the RNAs are library labels; protein concentration not given here; high values mean tight binding).
T1 sequence: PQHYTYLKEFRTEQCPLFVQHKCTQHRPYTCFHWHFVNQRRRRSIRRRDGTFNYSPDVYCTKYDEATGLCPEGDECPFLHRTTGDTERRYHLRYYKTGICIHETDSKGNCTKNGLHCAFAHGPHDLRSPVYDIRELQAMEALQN

Compared with B1, B2 is lower in binding signal: 1.66 enrichment R for the first, 1.15 enrichment R for the second.

First: B3
Second: B4
The binding signal of the first is higher: 0.636 enrichment R for the first, 0.601 enrichment R for the second.

Going from B5 to B6, the binding signal rises from 0.317 enrichment R to 1.81 enrichment R.

Going from B7 to B8, the binding signal rises from 0.607 enrichment R to 1.05 enrichment R.

Going from B9 to B10, the binding signal falls from 0.74 enrichment R to 0.574 enrichment R.

First: B11
Second: B12
The binding signal of the first is higher: 1.21 enrichment R for the first, 0.69 enrichment R for the second.

Compared with B13, B14 is lower in binding signal: 2.34 enrichment R for the first, 1.59 enrichment R for the second.
